Measurements as given in the supplement of paper PMC10126150.
Sequences with one replicate were seen in a single cluster, so their values are uncertain.

Test system: ATP
Assay: switch fluorescence ratio, 500 uM ATP over buffer (Cy3 cluster intensity, sum of 5 cycles each) (fold (ratio)); higher = stronger signal-on switching upon ATP binding; sequences stand for … in TCGTCGGCAGCGTCAGATGTGTATAAGAGACAGTTTTTTTTTTTTTTTTTTTTTTTTT…TC
Details: aptamer strand: ATP DNA aptamer (quencher-CACCTGGGGGAGTATTGCGGAGGAAGG + anchor), 100 nM annealed; ATP concentration: 500 uM; one replicate
Summary of the method: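 After annealing to 100 nM quencher-labelled ATP aptamer, Cy3-labelled switching-strand clusters on a modified Illumina MiSeq flow-cell were imaged in selection buffer. A second image followed after 15 min with 500 uM ATP at 22 °C, and five such buffer/ATP cycles were done, each separated by NaOH stripping and re-annealing. The fluorescence ratio, averaged per switch-domain sequence, is summed target-cycle over summed buffer-cycle Cy3 intensity per cluster, with clusters outside 100-1000 RFU excluded.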
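Note: ATP exposure 15 min at 22 °C before imaging.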

Row | Sequence | switch fluorescence ratio
1 | AGCGGATCTG | 0.986
2 | TGTAAGAGGT | 0.973
3 | GGAGTCTGCA | 1.12
4 | GCCGTTGAAA | 1.03
5 | CCATTAC | 1.26
6 | ACTGATCTGT | 1.05
7 | ATACGAGTCT | 1
8 | ATAGGTTAT | 0.977
9 | ACAGCCTCTA | 0.987
10 | TTGGTCTGCT | 0.954
11 | TATTAACGGT | 0.992
12 | TTAGGATCTG | 0.986
13 | AGGCTGGTTT | 1
14 | TCTCCATGCC | 1.18
15 | TTGGTTGACT | 0.937
16 | TTACAGAGTG | 1.02
17 | ACTACGGTTG | 1.04
18 | TCAACATTAG | 1.05
19 | ATATCTCGCT | 0.976
20 | AAAATGGCTC | 0.989
21 | ATTGCATTA | 0.972
22 | GTAGGCCCGT | 0.948
23 | TGGTCGACCT | 1.01
24 | GCAGCACCTA | 1
25 | GGGAGTCTCG | 0.966
26 | TGACTATAAA | 0.992

Row | Sequence | switch fluorescence ratio
27 | ACGCTCAAGG | 1.09
28 | GGGGCGGGAC | 0.995
29 | CTGCCTATTT | 0.988
30 | GCCGGTTGCC | 1.04
31 | AGTAGGAAAC | 1.05
32 | GAGACCTGAT | 1
33 | AGGTTTTCCC | 0.967
34 | GCATGAGGTA | 0.96
35 | AAAAACCTAA | 0.943
36 | CCAAAGGAAC | 1.07
37 | CGAGCGGGTC | 1.13
38 | CATGGATAAG | 0.996
39 | ACAGCGCTGA | 0.992
40 | AAGTGATATC | 1.01
41 | CTCACAATAT | 3.96
42 | AGAATCACGA | 1.03
43 | GCGATGGGTT | 1.02
44 | GGGACTGCGG | 0.911
45 | TCCTCAGCCA | 3.81
46 | CGGCTAGTTG | 1.02
47 | ATGCGGAATT | 0.995
48 | ACAATGCTTG | 1.03
49 | GTAAAAGCTA | 1.01
50 | TAGCCTGTAT | 0.994
51 | ATATGAGCCG | 1.06
52 | AACCATTTCA | 1.01

Row | Sequence | switch fluorescence ratio
53 | GAGATCGATA | 1.1
54 | CCAGTGCGAG | 1.01
55 | TATGTAATAG | 1.22
56 | AGCCAGTGTG | 1.59
57 | ACCGCTCCAG | 1.27
58 | AATGGTATGA | 0.995
59 | TAGTTATGCA | 1.01
60 | TAAACCCG | 1.14
61 | CATATGGACA | 1.03
62 | CTCTTCGGGG | 1.06
63 | CGACACCGGT | 1.04
64 | GCACCTATAG | 1.03
65 | AAGCGTGTA | 1.05
66 | ATCAATCGGC | 1.01
67 | CCCTGATCAA | 1.08
68 | GCTAATTTCG | 0.999
69 | GATACAGAGA | 1.05
70 | CAGCTCTAAC | 1.12
71 | CGGAAACTGT | 0.947
72 | GACGGTCAAC | 1.02
73 | TTGTAGTGGC | 1.06
74 | CTGAACATAG | 1.02
75 | GTGGCTGGCA | 0.985
76 | AGAGAGTAGC | 0.989
77 | TGTATAGGCA | 1.03
78 | GGGATTGCG | 1.01

Row | Sequence | switch fluorescence ratio
79 | ATAACATATC | 1.04
80 | TTACCTCGGT | 1.02
81 | CTGTAACAG | 1.03
82 | CAGGGGAATT | 1.02
83 | CATGACGATT | 1
84 | CGTAAATTTT | 1.01
85 | GTCGCGCATT | 1.01
86 | GTTGTGAATT | 1.04
87 | GTTCAGAACC | 0.962
88 | GTGTGACTGC | 1.03
89 | TTACGTGCGA | 0.973
90 | CTGGTAACGC | 1.05
91 | ATATCGCGTT | 0.928
92 | AACGTCATGA | 1.02
93 | TCGAATCGTG | 0.977
94 | TAATTGTTCG | 1.04
95 | GAGGGGCGGC | 1.03
96 | ATGTGGAACT | 0.966
97 | AGGGATGTAC | 1.13
98 | ACGTACCGT | 1.6
99 | TTGACAGCC | 1.14
100 | CTCTCGAGGA | 1.02
101 | CGGGTCAGC | 0.964
102 | AAGTAGAGGC | 1.03
103 | TCTAAGATCT | 1
104 | TTAGAGTCCA | 1.01

Row | Sequence | switch fluorescence ratio
105 | TTCTTGGCCT | 1.01
106 | TGATGGTATC | 0.99
107 | ATCGTGATTT | 1.09
108 | CGCGCCCTGA | 1.04
109 | TTGTGTTTGC | 1.03
110 | GACATAATT | 1.01
111 | GTTAATGCGC | 1.04
112 | ACCCCGGCGG | 1.33
113 | GTAGCTATTT | 1.09
114 | TTCAAAAAGC | 1.01
115 | CGCTCCAGTG | 1.54
116 | GTCGGTTGAT | 0.941
117 | CGCCTAGGAC | 1.11
118 | TTAGAATTT | 1.03
119 | CGGTCTCCGC | 1.87
120 | GACGTCCCGG | 0.97
121 | CTAGTGAGGG | 0.995
122 | TGGCCACCGC | 1.01
123 | TCAGGCCGGA | 0.968
124 | CTCCGAGGCG | 1.87
125 | GGACCAAAAA | 1.06
126 | ATTTCGTACG | 1
127 | AGTGGATACA | 0.99
128 | GAGATTACCC | 1.03
129 | TTATCTGAAC | 0.985
130 | TTATCTACCA | 1.05

Row | Sequence | switch fluorescence ratio
131 | CTCGTTAGTG | 1.02
132 | AGTAACAAAA | 0.999
133 | CGGAACGGAC | 1.1
134 | TCTCAGATCA | 1.02
135 | CCTCGTTCTG | 1.03
136 | AATTGAGCCC | 0.987
137 | TTGCGAGTA | 0.972
138 | TTCGTTGGTC | 0.946
139 | TTTGTCATGC | 1.26
140 | AATTGGGTAG | 1.02
141 | GCGCAATTCC | 3.05
142 | GGGAGAGTGT | 0.994
143 | GCACATTAGA | 1.04
144 | GCCCCGGTGG | 1.13
145 | GGTTGGGCAC | 1.01
146 | CTGGCCTGCA | 1.04
147 | CACATACTGA | 1.43
148 | TATGCCCTTG | 1.06
149 | CTGTATGCTC | 1.05
150 | TTTAACCCGG | 1.01
151 | GCCGGATCGC | 1.06
152 | TAAAGTGTAA | 1.02
153 | TAAGTGGGAC | 0.995
